According to patent US20230331823A1 (HENRY M JACKSON FOUNDATION FOR THE ADVANCEMENT OF MILITARY …, published 2023):

B1: ShAb02a (ShAb02 VNAR-3c-Fc) (Fc fusion)
chain: ARVDQTPQTITKETGESLTINCVLRDSNCALASTDWYRKKSGSTNEESISKGGRYVETVNSGSKSFSLRINDLTVEDSGTYRCNAWDSWETRQLKCDYDVYGGGTVVTVNSREPKSCDKGLEVLFQ[no letters for human IgG1 Fc and a few adjoining residues]
B2: ShAb01a (ShAb01 VNAR-3c-Fc) (Fc fusion)
chain: ARVDQTPRSVTKETGESLTINCVLRDSNCALSSTHWYRKKSGSTNEERILQGRRYVETVNSGSKSFSLRINDLRVEDSGTYRCKVYWGNSWQDKFCPGLGSYEYGDGTAVTVNSREPKSCDKGLEVLFQ[no letters for human IgG1 Fc and a few adjoining residues]

Target: SARS-CoV-2 WA-1 Spike on pseudovirions (SARS-CoV-2)
Assay: cell-based or functional assay

| Binder | pseudovirus neutralization IC50 [µg/mL] | pseudovirus neutralization IC80 [µg/mL] |
| --- | --- | --- |
| B1 | 0.038 | 0.127 |
| B2 | 0.228 |  |
